Measured values published in PubChem BioAssay AID1948 (National Center for Advancing Translational Sciences (NCATS), 2009).
Screen size: about 110,000 compounds; about 20 (0.02%) were called active. Inconclusive results, whose numbers are uncertain, are shown with a selection of clear calls. The call rests on the fitted dose curve; in most records, active means well fitted activation curve with a large enough effect; inconclusive means small, poorly fitted or top-dose-only effect; inactive means no such curve, though single readings can be large or run the other way. Where the call is inconclusive, the potency comes from a doubtful curve fit.

Experiment: qHTS Assay for Compounds that Induce Erasure of Genomic Imprints;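 on activity change, positive = activation: 0% = negative control wells on the plate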
Details: mouse ES Peg3-LacZ reporter, beta-gal luminescence, 40 h; activity change, positive = activation: at 60.7 µM (top of the series) unless noted
Text: qHTS Assay for Compounds that Induce Erasure of Genomic Imprints NIH Chemical Genomics Center [NCGC] NIH Molecular Libraries Screening Centers Network [MLSCN] Assay Submitter (PI): JEFFRIES, SEAN, NCGC, University of Cambridge NCGC Peg3 Imprinting Assay Overview Genomic imprinting is the epigenetic process whereby genes are expressed in a parent of origin fashion. […] Unlike some forms of epigenetic silencing that can be overcome by overexpression of transcription factors, genomic imprinting stably represses the expression of one allele despite potentially high levels of expression from the other allele. […] During mouse embryonic day 11.5 imprints are erased in PGCs so that sex specific imprints can be reestablished during gametogenesis. Embryonic germ (EG) cells can be derived from developing PGCs at embryonic day 11.5 and these cells often lack genomic imprints. […] Embryonic stem (ES) cells are a cell type similar to EG cells in phenotype and transcriptional profile, yet ES cells maintain genomic imprints. This similarity between ES and EG cells prompted us to use ES cells to look for factors which could induce imprint erasure. To investigate the stability of genomic imprinting, ES cells were derived from mice with an insertion of a LacZ-Neomycin reporter construct in the Peg3 locus. Peg3 is an imprinted locus where gene expression is restricted to the paternal allele. […] Using LacZ expression we are able to monitor the state of the Peg3 imprint. In order to dissect the mechanisms involved in imprint erasure using a forward chemical genetics approach we developed a cell based phenotype assay using an endogenous silence imprinted locus. This assay utilizes maternally inherited Peg3LacZ-Neo ES cells by monitoring the LacZ expression from the normally silent Peg3 allele. To facilitate screening, high-density feeder-free ES cell culture has been optimized so that ES cells can be grown in 1536 for over four days without feeding or washes. The assay uses a luminescence based read out for LacZ activity and is a homogenous assay optimal for HTS.
NCGC Peg3 Imprinting Assay Protocol Summary ES cell lines were derived from blastocysts taken from Peg3LacZ-Neo x129 matings. Lines were sexed and genotyped for the Peg3LacZ-Neo allele. Female cells carrying the reporter allele were used in this study. Cells were derived on a layer of mouse embryonic fibroblasts and passaged multiple times before switching to feeder free culture. Cells were maintained feeder free on gelatin coated dishes in DMEM/F12 media supplemented with 15% FBS, 2mM L-glutamine, 100 units/ml penicillin, 100ug/ml streptomycin, 0.1mM MEM nonessential amino acids, 1mM sodium pyruvate, 0.1% sodium bicarbonate, 0.1mM 2-Mercaptoethanol, and 400 units/ml leukemia inhibitory factor (LIF) at 37C with 5% CO2. The assay was performed in 1536-well format. A single luminescence read was taken at the end of the assay and the data was normalized by plate to internal negative controls. Maximum efficacy and AC50 values were calculated from dose-response data using the standard Hill equation. 1536 well plates were filled with 0.5ul of 0.1% gelatin per well, spun down and incubated for at least 30 min at 37C. The ES cells were then trypsini Peg3 1536-well assay protocol: (1)Plate 0.5ul/well 0.1% gelatin in white tissue culture treated 1536-well plates, spin and incubate at 37C for at least 30 min. (2)Add 5ul/well (300 cells) of ES cell suspension from freshly trypsinized cells and incubate at 37C, 5% CO2 for 40 hours. (3)Add 5ul/well of freshly prepared BetaGlo solution and incubate at room temperature for 5 minutes. (4)Read luminescence on the ViewLux plate reader. Keywords Genomic Imprinting, Germ Cells, Embryonic Stem Cell, DNA Methylation, Peg3, qHTS, NIH roadmap, NCGC
Potency means the concentration at half of the fitted maximal effect; tags describe the fitted curve by direction and shape.

Row | Structure (SMILES) | Potency | activity change, positive = activation
1 | COC(=O)c1ccc2ccn(CC(=O)NC(C)C)c2c1 | inconclusive: 12.6 µM [activator, single point] | 
2 | c1cc2ccc3cccc4ccc(c1)c2c34 | inconclusive: 12.6 µM [activator, single point] | 
3 | COc1cccc(CNC2CN3CCC2CC3)c1OC (configuration not stated) | inconclusive: 31.6 µM [activator, single point] | 
4 | CC(C)c1ccc(O)c(CN2CCN(c3ccccc3)CC2)c1 | inconclusive: 6.31 µM [activator, single point] | 
5 | CN(C)C(=S)SC(=S)N(C)C |  | inactive: -30.8%
6 | CC(CCc1ccccc1)NC(C)C(O)c1ccc(O)cc1 (configuration not stated) | inactive | 
7 | O=[N+]([O-])c1ccc2c3c(cccc13)CC2 | inconclusive: 31.6 µM [activator, single point] | 
8 | O=c1c2ccccc2nc(-c2cccs2)n1-c1cnccn1 | inconclusive: 0.501 µM [activator, single point] | 
9 | Oc1ccc2c3c1O[C@H]1c4[nH]c5ccccc5c4C[C@@]4(O)C(C2)N(CC2CC2)CCC314 (some centres not stated) |  | inactive: -8.09%
10 | Cc1cc(Cc2cc(C)c(N)cc2N)c(N)cc1N | inconclusive: 0.631 µM [activator, single point] | 
11 | COc1cc(C=C(C#N)C#N)cc(O)c1O |  | inactive: -25.3%
12 | Nc1ccncc1 | inconclusive: 6.31 µM [activator, single point] | 
13 | COc1cc(C2c3cc4c(cc3C(O)[C@H]3COC(=O)C23)OCO4)cc(OC)c1OC (some centres not stated) | inactive | 
14 | CCC[N+](=O)[O-] | inconclusive: 12.6 µM [activator, single point] | 
15 | C=C(C)[C@H]1[C@H]2OC(=O)[C@@H]1[C@]1(O)C[C@H]3O[C@]34C(=O)O[C@H]2[C@@]14C | inconclusive: 3.98 µM [activator, single point] | 
16 | C=CCn1c(O)c(C(CC)=NCc2cc(OC)cc(OC)c2)c(=O)[nH]c1=O |  | inactive: -19.1%
17 | Oc1ccc(Cl)cc1Sc1cc(Cl)ccc1O | inconclusive: 5.01 µM [activator, single point] | 
18 | O=C(O)c1cc[c]([Hg][S]c2ncnc3nc[nH]c23)cc1 |  | inactive: -57.8% [at 10.9 µM]
19 | Cc1c(Cl)cccc1NC(=O)CN1C(=O)C(C)N=C(c2ccccc2)c2ccccc21 (configuration not stated) |  | inconclusive: 86.6% [activator] [at 10.9 µM]
20 | CN[C@@H]1C[C@@H](c2ccc(Cl)c(Cl)c2)c2ccccc21 |  | inactive: -37.5%
21 | CC1CN(O)C2CCc3nonc3C12O (configuration not stated) | inconclusive: 3.98 µM [activator, single point] | 
22 | CC(=O)C1=C(O)C2C3c4c[nH]c5cccc(c45)CC3C(C)(C)N2C1=O (configuration not stated) |  | inactive: 20%
